Laboratory results from the supplement of paper PMC10126150.
Values marked as one replicate rest on one cluster of the flow cell; about a third of the high ones do not repeat.

Tested on: ATP
Assay: switch fluorescence ratio, 500 uM ATP over buffer (Cy3 cluster intensity, sum of 5 cycles each) (fold (ratio)); higher = stronger signal-on switching upon ATP binding; sequences stand for … in TCGTCGGCAGCGTCAGATGTGTATAAGAGACAGTTTTTTTTTTTTTTTTTTTTTTTTT…TC
Details: aptamer strand: ATP DNA aptamer (quencher-CACCTGGGGGAGTATTGCGGAGGAAGG + anchor), 100 nM annealed; ATP concentration: 500 uM; one replicate
How it was run: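 Values give the fluorescence ratio for each switch-domain sequence, averaged from per-cluster ratios of summed target-cycle to summed buffer-cycle Cy3 intensity. The Cy3-labelled switching-strand clusters sat on a modified Illumina MiSeq flow-cell, were annealed to 100 nM quencher-labelled ATP aptamer, and were imaged in selection buffer, then after 15 min with 500 uM ATP at 22 °C. Five cycles ran with NaOH stripping and re-annealing between them, and clusters outside 100-1000 RFU were excluded.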
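Note: ATP exposure 15 min at 22 °C before imaging.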

**Q.** With ATGTGGATAT as the sequence, how does the switch fluorescence ratio read?
**A.** 1.04

**Q.** For ATGTGGGTGG, which switch fluorescence ratio is on record?
**A.** 1.01

**Q.** With ATGTGTGAGC as the sequence, how does the switch fluorescence ratio read?
**A.** 1

**Q.** For ATGTGTGTAC, which switch fluorescence ratio is on record?
**A.** 0.997

**Q.** For ATGTGTTGTC, which switch fluorescence ratio is on record?
**A.** 1.03

**Q.** With ATGTTAGAAG as the sequence, how does the switch fluorescence ratio read?
**A.** 1

**Q.** Which switch fluorescence ratio does the source give for ATGTTCGGGT here?
**A.** 1.03

**Q.** How did the switch fluorescence ratio turn out when ATGTTCTACT was run?
**A.** 1.02

**Q.** For ATGTTGACAG, which switch fluorescence ratio is on record?
**A.** 1.02

**Q.** ATGTTGCATG was tested. Which switch fluorescence ratio did it give?
**A.** 0.972

**Q.** How did the switch fluorescence ratio turn out when ATGTTGCCGC was run?
**A.** 0.946

**Q.** Which switch fluorescence ratio does the source give for ATGTTGGTCA here?
**A.** 0.991

**Q.** ATGTTTAAAA was tested. Which switch fluorescence ratio did it give?
**A.** 0.991

**Q.** With ATGTTTGACC as the sequence, how does the switch fluorescence ratio read?
**A.** 0.995

**Q.** ATTAAAAAGC was tested. Which switch fluorescence ratio did it give?
**A.** 1.01

**Q.** For ATTAACATAG, which switch fluorescence ratio is on record?
**A.** 1.01

**Q.** Which switch fluorescence ratio does the source give for ATTAACTTGA here?
**A.** 1.07

**Q.** With ATTAATAATA as the sequence, how does the switch fluorescence ratio read?
**A.** 1.01

**Q.** Which switch fluorescence ratio does the source give for ATTAATTATA here?
**A.** 1.01

**Q.** How did the switch fluorescence ratio turn out when ATTACAAAGC was run?
**A.** 0.958

**Q.** ATTACAACAC was tested. Which switch fluorescence ratio did it give?
**A.** 1.24

**Q.** Which switch fluorescence ratio does the source give for ATTACTCTTG here?
**A.** 1.05

**Q.** How did the switch fluorescence ratio turn out when ATTAGAGAAT was run?
**A.** 0.975

**Q.** Which switch fluorescence ratio does the source give for ATTAGATTG here?
**A.** 1.02

**Q.** How did the switch fluorescence ratio turn out when ATTAGGACTC was run?
**A.** 0.994

**Q.** Which switch fluorescence ratio does the source give for ATTAGGCCCG here?
**A.** 0.95

**Q.** Which switch fluorescence ratio does the source give for ATTAGGCCT here?
**A.** 1.02

**Q.** ATTAGGCGTA was tested. Which switch fluorescence ratio did it give?
**A.** 1.03

**Q.** ATTAGTCCAA was tested. Which switch fluorescence ratio did it give?
**A.** 0.97

**Q.** With ATTAGTGAAT as the sequence, how does the switch fluorescence ratio read?
**A.** 0.975

**Q.** How did the switch fluorescence ratio turn out when ATTATAAACG was run?
**A.** 1.04

**Q.** For ATTATACTAC, which switch fluorescence ratio is on record?
**A.** 1.04

**Q.** Which switch fluorescence ratio does the source give for ATTATAGACC here?
**A.** 1.03

**Q.** With ATTATAGCCG as the sequence, how does the switch fluorescence ratio read?
**A.** 1.06

**Q.** Which switch fluorescence ratio does the source give for ATTATATTGG here?
**A.** 0.958

**Q.** For ATTATCACG, which switch fluorescence ratio is on record?
**A.** 1.03

**Q.** ATTATCAGGC was tested. Which switch fluorescence ratio did it give?
**A.** 0.919

**Q.** How did the switch fluorescence ratio turn out when ATTATCCTTA was run?
**A.** 0.987

**Q.** How did the switch fluorescence ratio turn out when ATTATGAAGG was run?
**A.** 0.98

**Q.** With ATTATGCGGA as the sequence, how does the switch fluorescence ratio read?
**A.** 0.988

**Q.** How did the switch fluorescence ratio turn out when ATTATGCGTG was run?
**A.** 0.995

**Q.** Which switch fluorescence ratio does the source give for ATTATTCCCC here?
**A.** 1.02

**Q.** How did the switch fluorescence ratio turn out when ATTATTCTTA was run?
**A.** 1.02

**Q.** ATTATTGTG was tested. Which switch fluorescence ratio did it give?
**A.** 1.05

**Q.** With ATTCAACTTT as the sequence, how does the switch fluorescence ratio read?
**A.** 1.02

**Q.** For ATTCACATGC, which switch fluorescence ratio is on record?
**A.** 1.24

**Q.** ATTCAGAGCG was tested. Which switch fluorescence ratio did it give?
**A.** 1.05

**Q.** For ATTCAGGGGC, which switch fluorescence ratio is on record?
**A.** 1.03

**Q.** Which switch fluorescence ratio does the source give for ATTCATGCGA here?
**A.** 1.01

**Q.** How did the switch fluorescence ratio turn out when ATTCCATCGG was run?
**A.** 0.995

**Q.** How did the switch fluorescence ratio turn out when ATTCCCATGT was run?
**A.** 0.983

**Q.** For ATTCCGAATT, which switch fluorescence ratio is on record?
**A.** 1.1

**Q.** ATTCCGTCCA was tested. Which switch fluorescence ratio did it give?
**A.** 1.01

**Q.** With ATTCCTCAT as the sequence, how does the switch fluorescence ratio read?
**A.** 1.11

**Q.** ATTCCTGGCT was tested. Which switch fluorescence ratio did it give?
**A.** 1.05

**Q.** How did the switch fluorescence ratio turn out when ATTCGAAGCA was run?
**A.** 1.22

**Q.** For ATTCGAAGGG, which switch fluorescence ratio is on record?
**A.** 0.977

**Q.** With ATTCGAGACA as the sequence, how does the switch fluorescence ratio read?
**A.** 0.999

**Q.** For ATTCGAGAG, which switch fluorescence ratio is on record?
**A.** 1.01

**Q.** ATTCGCAATT was tested. Which switch fluorescence ratio did it give?
**A.** 4.65

**Q.** With ATTCGCGACC as the sequence, how does the switch fluorescence ratio read?
**A.** 1.11

**Q.** Which switch fluorescence ratio does the source give for ATTCGCGGCA here?
**A.** 1.05

**Q.** ATTCGGAACA was tested. Which switch fluorescence ratio did it give?
**A.** 0.991

**Q.** ATTCGGGCA was tested. Which switch fluorescence ratio did it give?
**A.** 0.912

**Q.** For ATTCGTACCA, which switch fluorescence ratio is on record?
**A.** 1.01

**Q.** For ATTCGTATAC, which switch fluorescence ratio is on record?
**A.** 2.15

**Q.** With ATTCGTTTGG as the sequence, how does the switch fluorescence ratio read?
**A.** 0.943

**Q.** For ATTCTATGGG, which switch fluorescence ratio is on record?
**A.** 1

**Q.** Which switch fluorescence ratio does the source give for ATTCTCAATT here?
**A.** 1.01

**Q.** Which switch fluorescence ratio does the source give for ATTCTCGGAG here?
**A.** 0.971

**Q.** ATTCTGGACT was tested. Which switch fluorescence ratio did it give?
**A.** 1.05

**Q.** With ATTCTGGATA as the sequence, how does the switch fluorescence ratio read?
**A.** 1.01

**Q.** How did the switch fluorescence ratio turn out when ATTCTGGGG was run?
**A.** 0.974

**Q.** How did the switch fluorescence ratio turn out when ATTCTGTGCG was run?
**A.** 0.994

**Q.** For ATTCTTAGGT, which switch fluorescence ratio is on record?
**A.** 0.992

**Q.** For ATTCTTGATA, which switch fluorescence ratio is on record?
**A.** 1.02

**Q.** How did the switch fluorescence ratio turn out when ATTGAAATAG was run?
**A.** 0.989

**Q.** For ATTGAACGTA, which switch fluorescence ratio is on record?
**A.** 1.03

**Q.** How did the switch fluorescence ratio turn out when ATTGACAGTG was run?
**A.** 1.05

**Q.** ATTGAGACAG was tested. Which switch fluorescence ratio did it give?
**A.** 0.972

**Q.** Which switch fluorescence ratio does the source give for ATTGAGGTGC here?
**A.** 1.06

**Q.** For ATTGAGTCTT, which switch fluorescence ratio is on record?
**A.** 1.01

**Q.** ATTGAGTTGC was tested. Which switch fluorescence ratio did it give?
**A.** 0.929

**Q.** For ATTGCCACG, which switch fluorescence ratio is on record?
**A.** 1.03

**Q.** For ATTGCTGTGG, which switch fluorescence ratio is on record?
**A.** 1.01

**Q.** With ATTGCTTTCC as the sequence, how does the switch fluorescence ratio read?
**A.** 1.28

**Q.** How did the switch fluorescence ratio turn out when ATTGGAAGCA was run?
**A.** 0.997

**Q.** Which switch fluorescence ratio does the source give for ATTGGACTGT here?
**A.** 1.05

**Q.** ATTGGCAG was tested. Which switch fluorescence ratio did it give?
**A.** 0.999

**Q.** For ATTGGCCCCC, which switch fluorescence ratio is on record?
**A.** 1.12

**Q.** ATTGGGCTTT was tested. Which switch fluorescence ratio did it give?
**A.** 0.965

**Q.** Which switch fluorescence ratio does the source give for ATTGGGGAGT here?
**A.** 1.01

**Q.** Which switch fluorescence ratio does the source give for ATTGTACAGA here?
**A.** 1

**Q.** How did the switch fluorescence ratio turn out when ATTGTAGATC was run?
**A.** 1.02

**Q.** ATTGTCATCC was tested. Which switch fluorescence ratio did it give?
**A.** 0.989

**Q.** ATTGTCCTTC was tested. Which switch fluorescence ratio did it give?
**A.** 1.05

**Q.** With ATTGTCTGGT as the sequence, how does the switch fluorescence ratio read?
**A.** 0.972

**Q.** For ATTGTGAGTC, which switch fluorescence ratio is on record?
**A.** 0.971

**Q.** With ATTGTGGAAG as the sequence, how does the switch fluorescence ratio read?
**A.** 0.98

**Q.** For ATTGTGTTTC, which switch fluorescence ratio is on record?
**A.** 1.02

**Q.** How did the switch fluorescence ratio turn out when ATTGTTAAGG was run?
**A.** 1.02
